Viability of KB3-1 and Nalm-6 cells after 48 h of drug alone (CellTiter-Glo), 11 doses over about 4.5 log units. % of DMSO wells, lower = more cell loss; AC50 from the fitted curve, lower = more potent. No active / inactive call. Nalm-6 was screened in two runs. AC50 is listed only for well-fitted inhibitory curves. KB3-1 is a HeLa-derived carcinoma line, Nalm-6 a B-cell precursor leukaemia line.
Key:
[1] = test system: KB3-1; assay: viability (% of DMSO control); higher = more viable cells
Procedure: (§1)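 Eleven-dose screen of the NCATS MIPE 3 library on cells without co-treatment; CellTiter-Glo after 48 h, as % of DMSO wells.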

[2] = test system: Nalm-6; assay: as above
Procedure: as §1

[3] = test system: Nalm-6; assay: log AC50 of viability decrease (48 h) (log10 M); higher = less potent
Procedure: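 Eleven-dose screen of the NCATS MIPE 3 library on cells without co-treatment; CellTiter-Glo after 48 h. AC50 from the curve fit; only inhibitory curves of the better fit classes are listed.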

CC[C@@H]1C(=O)N(C)c2cnc(Nc3ccc(C(=O)NC4CCN(C)CC4)cc3OC)nc2N1C1CCCC1 [BI-2536]
Conditions | log AC50 of viability decrease | viability [%]
[1], 0.00078 µM | – | 82.8
[1], 0.00234 µM | – | 33.4
[1], 0.00702 µM | – | 32.1
[1], 0.0211 µM | – | 31.5
[1], 0.0632 µM | – | 32.2
[1], 0.19 µM | – | 32.9
[1], 0.569 µM | – | 36.5
[1], 1.71 µM | – | 45.3
[1], 5.12 µM | – | 53.6
[1], 15.4 µM | – | 51.4
[1], 46.1 µM | – | 3.77
[2], run: 1, 0.00078 µM | – | 86.6
[2], run: 1, 0.00234 µM | – | 85
[2], run: 1, 0.00702 µM | – | 32.9
[2], run: 1, 0.0211 µM | – | 15.2
[2], run: 1, 0.0632 µM | – | 15.5
[2], run: 1, 0.19 µM | – | 20.5
[2], run: 1, 0.569 µM | – | 16.3
[2], run: 1, 1.71 µM | – | 14.6
[2], run: 1, 5.12 µM | – | 11.7
[2], run: 1, 15.4 µM | – | 6.45
[2], run: 1, 46.1 µM | – | 5.02
[2], run: 2, 0.00078 µM | – | 92.2
[2], run: 2, 0.00234 µM | – | 92.2
[2], run: 2, 0.00702 µM | – | 46.9
[2], run: 2, 0.0211 µM | – | 13.5
[2], run: 2, 0.0632 µM | – | 12
[2], run: 2, 0.19 µM | – | 15
[2], run: 2, 0.569 µM | – | 11.1
[2], run: 2, 1.71 µM | – | 6.72
[2], run: 2, 5.12 µM | – | 5.61
[2], run: 2, 15.4 µM | – | 4.43
[2], run: 2, 46.1 µM | – | 4.71
[3], run: 1 | -8.28 | –
[3], run: 2 | -8.18 | –

CC(=O)O.Cc1c(-c2ccc(O)cc2)n(Cc2ccc(OCCN3CCCCCC3)cc2)c2ccc(O)cc12 [Bazedoxifene]
Conditions | log AC50 of viability decrease | viability [%]
[2], run: 1, 0.00078 µM | – | 101
[2], run: 1, 0.00234 µM | – | 107
[2], run: 1, 0.00702 µM | – | 107
[2], run: 1, 0.0211 µM | – | 108
[2], run: 1, 0.0632 µM | – | 102
[2], run: 1, 0.19 µM | – | 101
[2], run: 1, 0.569 µM | – | 108
[2], run: 1, 1.71 µM | – | 88.4
[2], run: 1, 5.12 µM | – | 99.9
[2], run: 1, 15.4 µM | – | 70.3
[2], run: 1, 46.1 µM | – | 2.39
[2], run: 2, 0.00078 µM | – | 108
[2], run: 2, 0.00234 µM | – | 103
[2], run: 2, 0.00702 µM | – | 107
[2], run: 2, 0.0211 µM | – | 101
[2], run: 2, 0.0632 µM | – | 107
[2], run: 2, 0.19 µM | – | 103
[2], run: 2, 0.569 µM | – | 107
[2], run: 2, 1.71 µM | – | 98.8
[2], run: 2, 5.12 µM | – | 106
[2], run: 2, 15.4 µM | – | 76
[2], run: 2, 46.1 µM | – | 3.14
[3], run: 1 | -4.73 | –
[3], run: 2 | -4.58 | –

Cc1ccc(C(=O)Nc2ccc(CN3CCN(C)CC3)c(C(F)(F)F)c2)cc1C#Cc1cnc2cccnn12 [Ponatinib]
Conditions | log AC50 of viability decrease | viability [%]
[2], run: 1, 0.00078 µM | – | 108
[2], run: 1, 0.00234 µM | – | 119
[2], run: 1, 0.00702 µM | – | 120
[2], run: 1, 0.0211 µM | – | 113
[2], run: 1, 0.0632 µM | – | 106
[2], run: 1, 0.19 µM | – | 101
[2], run: 1, 0.569 µM | – | 91.9
[2], run: 1, 1.71 µM | – | 64.5
[2], run: 1, 5.12 µM | – | 44.3
[2], run: 1, 15.4 µM | – | 17.9
[2], run: 1, 46.1 µM | – | 0.698
[2], run: 2, 0.00078 µM | – | 107
[2], run: 2, 0.00234 µM | – | 105
[2], run: 2, 0.00702 µM | – | 107
[2], run: 2, 0.0211 µM | – | 109
[2], run: 2, 0.0632 µM | – | 106
[2], run: 2, 0.19 µM | – | 96.7
[2], run: 2, 0.569 µM | – | 80.8
[2], run: 2, 1.71 µM | – | 45
[2], run: 2, 5.12 µM | – | 5.65
[2], run: 2, 15.4 µM | – | 4.03
[2], run: 2, 46.1 µM | – | 1.52
[3], run: 1 | -5.38 | –
[3], run: 2 | -5.88 | –

Cc1oncc1C(=O)Nc1ccc(C(F)(F)F)cc1 [Leflunomide]
Conditions | log AC50 of viability decrease | viability [%]
[2], run: 1, 0.00078 µM | – | 106
[2], run: 1, 0.00234 µM | – | 120
[2], run: 1, 0.00702 µM | – | 124
[2], run: 1, 0.0211 µM | – | 117
[2], run: 1, 0.0632 µM | – | 119
[2], run: 1, 0.19 µM | – | 112
[2], run: 1, 0.569 µM | – | 108
[2], run: 1, 1.71 µM | – | 112
[2], run: 1, 5.12 µM | – | 112
[2], run: 1, 15.4 µM | – | 105
[2], run: 1, 46.1 µM | – | 60.2
[2], run: 2, 0.00078 µM | – | 106
[2], run: 2, 0.00234 µM | – | 109
[2], run: 2, 0.00702 µM | – | 108
[2], run: 2, 0.0211 µM | – | 107
[2], run: 2, 0.0632 µM | – | 114
[2], run: 2, 0.19 µM | – | 106
[2], run: 2, 0.569 µM | – | 103
[2], run: 2, 1.71 µM | – | 107
[2], run: 2, 5.12 µM | – | 108
[2], run: 2, 15.4 µM | – | 96.2
[2], run: 2, 46.1 µM | – | 64.8
[3], run: 2 | -4.68 | –

NC/1=N/C(=O)N(/C=C1)[C@@H]2O[C@H](CO)[C@@H](O)C2(F)F [Gemcitabine]
Conditions | log AC50 of viability decrease | viability [%]
[2], run: 1, 0.00156 µM | – | 94.3
[2], run: 1, 0.00468 µM | – | 67.8
[2], run: 1, 0.014 µM | – | 53.7
[2], run: 1, 0.0421 µM | – | 41.2
[2], run: 1, 0.126 µM | – | 36.9
[2], run: 1, 0.379 µM | – | 31.6
[2], run: 1, 1.14 µM | – | 27.8
[2], run: 1, 3.41 µM | – | 19.7
[2], run: 1, 10.2 µM | – | 13.2
[2], run: 1, 30.7 µM | – | 6.7
[2], run: 1, 92.2 µM | – | 3.99
[2], run: 2, 0.00156 µM | – | 98.1
[2], run: 2, 0.00468 µM | – | 68.5
[2], run: 2, 0.014 µM | – | 48.7
[2], run: 2, 0.0421 µM | – | 35.9
[2], run: 2, 0.126 µM | – | 29.3
[2], run: 2, 0.379 µM | – | 25.3
[2], run: 2, 1.14 µM | – | 18.6
[2], run: 2, 3.41 µM | – | 10.1
[2], run: 2, 10.2 µM | – | 7.39
[2], run: 2, 30.7 µM | – | 5.9
[2], run: 2, 92.2 µM | – | 5.91
[3], run: 1 | -7.72 | –
[3], run: 2 | -7.92 | –

Fc1cc(-c2cccc3ncc(-c4cnn(C5CCNCC5)c4)nc23)cc(F)c1CN1CCOCC1 [NVP-BSK805]
Conditions | log AC50 of viability decrease | viability [%]
[2], run: 1, 0.00078 µM | – | 117
[2], run: 1, 0.00234 µM | – | 110
[2], run: 1, 0.00702 µM | – | 112
[2], run: 1, 0.0211 µM | – | 110
[2], run: 1, 0.0632 µM | – | 98.7
[2], run: 1, 0.19 µM | – | 104
[2], run: 1, 0.569 µM | – | 107
[2], run: 1, 1.71 µM | – | 93.6
[2], run: 1, 5.12 µM | – | 104
[2], run: 1, 15.4 µM | – | 71.9
[2], run: 1, 46.1 µM | – | 0.505
[2], run: 2, 0.00078 µM | – | 104
[2], run: 2, 0.00234 µM | – | 99.8
[2], run: 2, 0.00702 µM | – | 101
[2], run: 2, 0.0211 µM | – | 103
[2], run: 2, 0.0632 µM | – | 101
[2], run: 2, 0.19 µM | – | 99.6
[2], run: 2, 0.569 µM | – | 100
[2], run: 2, 1.71 µM | – | 101
[2], run: 2, 5.12 µM | – | 94.5
[2], run: 2, 15.4 µM | – | 82.9
[2], run: 2, 46.1 µM | – | 1.12
[3], run: 1 | -4.68 | –
[3], run: 2 | -4.63 | –

Cc1cn(-c2cc(NC(=O)c3ccc(C)c(Nc4nccc(-c5cccnc5)n4)c3)cc(C(F)(F)F)c2)cn1 [Nilotinib]
Conditions | log AC50 of viability decrease | viability [%]
[2], run: 1, 0.00078 µM | – | 112
[2], run: 1, 0.00234 µM | – | 107
[2], run: 1, 0.00702 µM | – | 115
[2], run: 1, 0.0211 µM | – | 106
[2], run: 1, 0.0632 µM | – | 101
[2], run: 1, 0.19 µM | – | 100
[2], run: 1, 0.569 µM | – | 109
[2], run: 1, 1.71 µM | – | 87.1
[2], run: 1, 5.12 µM | – | 77.9
[2], run: 1, 15.4 µM | – | 53.1
[2], run: 1, 46.1 µM | – | 7.59
[2], run: 2, 0.00078 µM | – | 105
[2], run: 2, 0.00234 µM | – | 102
[2], run: 2, 0.00702 µM | – | 104
[2], run: 2, 0.0211 µM | – | 110
[2], run: 2, 0.0632 µM | – | 111
[2], run: 2, 0.19 µM | – | 107
[2], run: 2, 0.569 µM | – | 107
[2], run: 2, 1.71 µM | – | 105
[2], run: 2, 5.12 µM | – | 78.1
[2], run: 2, 15.4 µM | – | 62.4
[2], run: 2, 46.1 µM | – | 16.1
[3], run: 1 | -4.73 | –
[3], run: 2 | -4.83 | –

O=C(O)CCC1CCC(c2cc(F)ccc2F)(S(=O)(=O)c2ccc(Cl)cc2)CC1 (stereo unspecified) [MK-0752]
Conditions | viability [%]
[1], 0.00078 µM | 97.4
[1], 0.00234 µM | 97.3
[1], 0.00702 µM | 93.4
[1], 0.0211 µM | 87.3
[1], 0.0632 µM | 96
[1], 0.19 µM | 97.6
[1], 0.569 µM | 56.5
[1], 1.71 µM | 92.8
[1], 5.12 µM | 97
[1], 15.4 µM | 94.5
[1], 46.1 µM | 96.7
[2], run: 1, 0.00078 µM | 90.3
[2], run: 1, 0.00234 µM | 95.5
[2], run: 1, 0.00702 µM | 104
[2], run: 1, 0.0211 µM | 100
[2], run: 1, 0.0632 µM | 102
[2], run: 1, 0.19 µM | 105
[2], run: 1, 0.569 µM | 101
[2], run: 1, 1.71 µM | 104
[2], run: 1, 5.12 µM | 108
[2], run: 1, 15.4 µM | 99.8
[2], run: 1, 46.1 µM | 102
[2], run: 2, 0.00078 µM | 103
[2], run: 2, 0.00234 µM | 95.9
[2], run: 2, 0.00702 µM | 104
[2], run: 2, 0.0211 µM | 101
[2], run: 2, 0.0632 µM | 97.5
[2], run: 2, 0.19 µM | 98
[2], run: 2, 0.569 µM | 91.7
[2], run: 2, 1.71 µM | 95.1
[2], run: 2, 5.12 µM | 95.3
[2], run: 2, 15.4 µM | 96
[2], run: 2, 46.1 µM | 92.8
